# Test results published in the supplement of paper PMC11417369.
# The other results are listed elsewhere or left out.
# Test system: PfSIP2 AP2 domain 1 (GST-tagged)
# Experiment: gcPBM binding intensity (ln(normalized median fluorescence intensity)); higher = stronger DNA binding
# Method in brief: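 GST-tagged P. falciparum DNA-binding domains, expressed in E. coli (about 25 μg on average), were applied for 1 h to an Agilent 4 × 180k array of primer-extended double-stranded 36-bp intergenic genomic probes plus negative controls. The binding buffer was 1× PBS with 1% milk, 0.2 mg/ml BSA, 0.5% salmon testes DNA and 0.03% Triton X-100. Bound protein was detected with Alexa488 anti-GST antibody and scanned at 488 nm. Binding intensity is the highest Masliner-normalised natural-log median intensity across replicate spots of either probe orientation.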
row,Sequence,gcPBM binding intensity (ln)
1,CCAAATTTATAAAGAACACACACATATATATATATA [CACACA_site7900],9.1
2,TATACATATTTAATATGTACATAATAATACTTATTC [XGTACX_site6939],6.95
3,AAGCATGTAGAATAATGTACTTGTGATTTTAATATA [XGTACX_site8565],6.8
4,AAAAAAAAAATACAGGTGCAATAAGAAAAAAATGGT,10.2
5,TATATTAACAAAATGGTGCAATAATTTCTATATTAT [GTGCAC_site9857],10.4
6,TAATATTTATCAAGTCGTACATAAAATGTATAATAA [XGTACX_site1103],6.93
7,ACAAAGAAATATAATACACACAAGAATATATTGGAT [CACACA_site3901],6.98
8,GTACAATAAGATGTAGCATGCCGTACCTTCACTACG [TGCATGCA_site235],6.83
9,ATACTGTATGAAAGCACACATACTTATTACTAACAT [CACACA_site4164],7.02
10,TATACATATTTGTATTGTACATAAACTAAATCTTCA [XGTACX_site610],6.73
11,CAAATAACAAAATAATGTACATTTATACTTTTTTTT [XGTACX_site943],6.88
12,TATCTCTACAAAATTTTATTCATTATTCATGTTATA [XGTACX_negctrl_site452],6.98
13,TCTAATAAAATAAATACATGCATACATACATACATA [TGCATGCA_site895],7.11
14,AAATAGAGAAATACAAGTACATACTAAACCTATCTA [XGTACX_site1334],6.85
15,AGGATTATATATTAATGTACCCGCGTTAATTTTTTT [XGTACX_site2878],6.82
16,TTTTTTAAACGTTTAAATAATTAAATATAAATAAAT [CACACA_negctrl_site1567],6.85
17,TGAACAACTATTACTGCACACATTCTTACACTATAT [CACACA_site4533],7.23
18,AAAAAAGAAACAATCGCATGCAATGTTAATGTACAT [TGCATGCA_site395],6.77
19,TACGCAAAATAAAATCAAAATATAAGGAAAAAAAAA [TGCATGCA_negctrl_site578],6.69
20,AGGTGTCATATATGCACACAAAAGTAACACGCACCT [CACACA_site472],9.63
21,GACCTACAAAAAGGCACACATATACTCATACATACA [CACACA_site5232],7.25
22,ACATTTATTTTGAATGGTACACTATTATTATGAAAT [XGTACX_site4384],6.96

row,Sequence,gcPBM binding intensity (ln)
1,GTGTAATGCTTATCGGTGCATATATATATATATATA,9.86
2,AAAAAAAAAAAAGGTACTACACACTATTATCAATAG [XGTACX_site161],7.05
3,GATAATTTTTGCATATGTACTTAAAAATTAAAAATT [XGTACX_site7037],7.17
4,ATTAAAAAATCCATAGTGCACTACGATAGGTTCCGA [GTGCAC_site9463],10.5
5,AAAGATGGAGTGATATGTACTGATATATTATTATAT [XGTACX_site6500],6.99
6,AAGCATAAAGTATATAGTACATATATATATATATAT [XGTACX_site2945],9.87
7,ATATAGTAAAGTTATACACACATGAATTTTCCCATA [CACACA_site7457],6.96
8,ATATTTTAATTATAAAGTACATAAAAATATATAAAC [XGTACX_site6705],6.99
9,TTTTTTATTGTGATACGTATATTATTTTATGATAAA [CACACA_negctrl_site1591],7.08
10,TAAAAATGTAAACACACACACATAAATATATTTTAT [CACACA_site5397],6.92
11,CTTTTGCCCAAAAAGGTACACACCACAATGTACATA [CACACA_site809],7.08
12,GTTAATATACATAAACGTACAGAATTATTATGAGTT [XGTACX_site5185],6.99
13,TAAATAATCGCATAATGTACATATAATTTTTTTTTT [XGTACX_site4880],6.82
14,AAAATTTTTTTTATTTGTACACAATTCGATACATAA [XGTACX_site4804],7.01
15,GCTTGGATATATTAATGTACTTATATATTATGTTGT [XGTACX_site3768],7.15
16,CCAATTCAAATATGCACACAAATTTGAAAACGATTA [CACACA_site3607],7.26
17,TTTGTTGTTGTGAAACGTACTCATAGGATGTTGTAT [XGTACX_site5716],7.26
18,ATATTTTCAATGTTCACACATACACAAAAAAAAAAA [CACACA_site6077],7.16
19,TTACTAAACTTATATGTACACACATATAACATTAAT [CACACA_site8710],7.28
20,GTAAAAATTTCATATTCACACACAAAAAAAAAAAAT [CACACA_site8457],7.11
21,TAAAAAAAAAAAAAAAGTACCCATACTATATTACAT [XGTACX_site946],6.85
22,AAGAATTTTACAAAATGTACTTATGTTTTGTTTTAC [XGTACX_site5632],6.83
